Results from PubChem BioAssay (NCI).
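Growth conditions: 96-well plates. Treatment: test compound, 48 hours, 5 concentrations. Analysis: linear interpolation between bracketing concentrations; unreached endpoints set to highest concentration. The concentration for 50% growth inhibition is given as GI50. Definition used: TGI = concentration required for complete inhibition of growth.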

System: NCI-H322M lung
Experiment: DTP human tumour cell line panel, 48 h

Structure (SMILES) | GI50 [µM] | TGI [µM]
COc1cc2nc(SCc3ccccc3)n(-c3ccc(Cl)cc3)c(=O)c2cc1OC | 19.1 | > 100
COC(=O)C[C@](O)(CCC(C)C)C(=O)O[C@H]1C(OC)=C[C@@]23CCCN2CCc2cc4c(cc2[C@@H]13)OCO4 | > 10.6 | > 28.9
